# Experimental data published in publication PMC12136788.
# The list shows a part of the results.
# T1: UNK ZnF1-3 (human, UniProt Q9C0B0 31-174)
# T1 sequence: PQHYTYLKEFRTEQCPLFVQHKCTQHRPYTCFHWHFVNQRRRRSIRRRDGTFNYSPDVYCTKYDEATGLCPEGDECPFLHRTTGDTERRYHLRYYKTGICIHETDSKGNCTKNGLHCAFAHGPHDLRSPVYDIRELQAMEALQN
# B1: chr11:75578903:75578904:+_ENSMUSG00000020849_ENSMUST00000067664|mus_mus|FALSE|FALSE (ssRNA)
# RNA: GGGAGUUCUACAGUCCGACGAUCUAGCUUCAAGUUACACGUACUGAACAAAAGAGGUUGAGCGAGCGAAGGAGGGGAGGAGGGAGGCCGAGGAGGAGGGAGGAGGAACAGAGUUGAACACGCAUGCAGGCUUCCAUACCACCUCAACAGAGGAUUGAGCAUCA
# B2: chr17:57762449:57762450:+_ENSG00000141367_ENST00000269122|hu_mus|FALSE|FALSE (ssRNA)
# RNA: GGGAGUUCUACAGUCCGACGAUCUUCGUGUUUUUCCAAACGCUGAGCAAGUGAGAUGUUGUCAAAGUUGUCAUAAGCAUCUAUUGAUGUUCGCAGAGCCUGGUAAUCUUCUUCAGUAAUAAAGAGGUUGUUCAGUGAUUCAUUCAACAGAGGAUUGAGCAUCA
# B3: chr4:95589192:95589193:+_ENSG00000163110_ENST00000317968|hu_hu|FALSE|FALSE (ssRNA)
# RNA: GGGAGUUCUACAGUCCGACGAUCAAAAUUAAAGAGACAGAAGAUAGACAUUAACAGAUAAGGCAACUUAUACAUUGAGAAUCCAAAUCCAAUACAUUUAAACAUUUGGGAAAUGAGGGGGACAAAUGGAAGCCAGAUCAAAUUCAACAGAGGAUUGAGCAUCA
# B4: 70526834_70526954_91_5pUTR_ENSMUSG00000054693_ENSMUST00000067880|mouse|control|control (ssRNA)
# RNA: GGGAGUUCUACAGUCCGACGAUCCGCGACCGGCGCUGGGUCCCGACGAGCCUCCCCGGCAGUGGCACCCGGCGAAGCGCCUCCCUCUCGCUCCACUUCAGGGGCCCAGCCGCGCGCCCUGCUCCGCCAAAACAGGGCCCUCCCCAACAGAGGAUUGAGCAUCA
# B5: chr8:121455507:121455508:-_ENSG00000172172_ENST00000306185|hu_hu|motif|central (ssRNA)
# RNA: GGGAGUUCUACAGUCCGACGAUCUGAAGUCUUAUAGAUGCCAUAGCAGCAAGUUUGCCAGGUGGCUGCAUUUUCCCAUCGGAGAGAUACCAUAUUCUAGCAAAAGUGGCCCAUUGCUGGGGCGCCCUAGAGAAACUCGACAUACAACAGAGGAUUGAGCAUCA
# B6: chr18:56900473:56900474:+_ENSMUSG00000024590_ENSMUST00000025486|mus_mus|motif|central (ssRNA)
# RNA: GGGAGUUCUACAGUCCGACGAUCAACAUCUAUCUCUUCAAUGCACACGUUCCCCGUGGCUGAGGCAGAGUGGGAAAUGCGGACACUGCUGCUCGCCUCCGACUCCUCCACAUCAACUCUCUUCCGCUUUCCUCUGGUGGUGCGCAACAGAGGAUUGAGCAUCA
# B7: chr11:75570464:75570465:+_ENSMUSG00000020849_ENSMUST00000067664|mus_hu|FALSE|FALSE (ssRNA)
# RNA: GGGAGUUCUACAGUCCGACGAUCACGGUCAGGGGAAUUAAGAAUUUCGUAGUAGAAUACGGAAAAAUUGAGAGCAAGACCUAAGCGAAUAGGAUGCGUUGGUGGAAGUUCUGUCAUUGCAAUAUCACUAGCAGCUUUAUAAGCCAACAGAGGAUUGAGCAUCA
# B8: 134016149_134016269_1505_CDS_ENSG00000151640_ENST00000338492|human|control|control (ssRNA)
# RNA: GGGAGUUCUACAGUCCGACGAUCGCGGCCCGCCCCCGGGGUGACAAACAUCUUCCCGUCCUCCAGCGCCACUCGGCCCUGACUUAUGACCACGGCAGGCGCUCCCCGGCACUCCACUCCCUCGAAGAUGUUGUACUCCACGUUCAACAGAGGAUUGAGCAUCA
# B9: chr1:137271502:137271503:-_ENSMUSG00000041889_ENSMUST00000041240|mus_hu|FALSE|FALSE (ssRNA)
# RNA: GGGAGUUCUACAGUCCGACGAUCCAGUCCUCGCCGGCCAGCACCAGGGGAGCCCCCAGCACCAACAGAGCGAUUGCGGUGAGCGGCGCGGCCCGGCGGAGCCCCGCGGGUGGCAUGGUGGGGGCUGGGCGCGGCCGGGGUCGGCAACAGAGGAUUGAGCAUCA
# B10: chr5:138651791:138651792:+_ENSG00000015479_ENST00000502499|hu_hu|FALSE|FALSE (ssRNA)
# RNA: GGGAGUUCUACAGUCCGACGAUCCCCCCAAGAUGAAAUGAGGGAGGUGGAGGUCCCAGAAUUCCUGGUGCUGGAUUUGUAGACUGCUGCAACAUGAAUGGAUCACCCAUUGUGUGUCCUGUAUCAUUGUCAGGAUUCCAUUCUCAACAGAGGAUUGAGCAUCA
# B11: chr1:33857880:33857881:-_ENSMUSG00000042197_ENSMUST00000044455|mus_mus|motif|central (ssRNA)
# RNA: GGGAGUUCUACAGUCCGACGAUCUCUUGAAAACACCCAGUCACACUUUAUAUCUCAAGGAUUUCACAACGACGUCGGGACGGAUGGCAUCCCUCUUUAUUUCAAGAGAGAUCAGAUUGUCAGGCAUGUUUGAAAUUCUUGCUCCAACAGAGGAUUGAGCAUCA
# B12: 131124709_131124829_5008_3pUTR_ENSMUSG00000048911_ENSMUST00000059372|mouse|control|control (ssRNA)
# RNA: GGGAGUUCUACAGUCCGACGAUCACGAAGAAUUUGGAUACGUGCUGAGCUAACUGGAAUAAAAGCAUCUUGAAAUAAUUUGGGUUCUAAAGCUGAACUUGAAAACUGAUAGGUCCUGUUAAUCUUAUUUAAAAAACCUUUACCCAACAGAGGAUUGAGCAUCA
# B13: chrX:69798090:69798091:-_ENSMUSG00000031343_ENSMUST00000055966|mus_mus|mus_mus_mus_hu_False|18_18 (ssRNA)
# RNA: GGGAGUUCUACAGUCCGACGAUCAAGUCCCCGGGUUCUUGUCGUCUUGAUUCCCCUUGACCAGUGGUUCCAGGGAGAAUAUUAAUCAGGAAAAGAAUCCCAAGGCUGGUCAUGUAAAAGUGCCACAUUUGUGUGAUUAUCAUCCAACAGAGGAUUGAGCAUCA
# B14: chr1:163115887:163115888:-_ENSG00000143248_ENST00000313961|hu_hu|FALSE|FALSE (ssRNA)
# RNA: GGGAGUUCUACAGUCCGACGAUCUUAGAAAAAAUUCUAGCAAGACUUAUAAUCAUGAAAUACAGAAUUAAAAGUUUAAACCUACCAAAAGUCCUAUGGCCUAUUAUUUAGCUGUGAAUGAGACACGUCAGGAGUAUAAAUCUGCAACAGAGGAUUGAGCAUCA
# B15: chr7:149068622:149068623:-_ENSMUSG00000025139_ENSMUST00000001950|mus_hu|mus_mus_mus_hu_False|8_88 (ssRNA)
# RNA: GGGAGUUCUACAGUCCGACGAUCGUGAGGCCUCUGAGUGUGGCUUGUGCUCUGCAGUGGGUUAGAGUUGUUAAUAUCACGGAACAUACCAUCUAGAACGUUCCAGUCCCGCCUGACACCUUCAUUCGCAAGAGGGCAGAAAUCCAACAGAGGAUUGAGCAUCA
# B16: chr14:24607556:24607557:+_ENSG00000092010_ENST00000206451|hu_mus|FALSE|FALSE (ssRNA)
# RNA: GGGAGUUCUACAGUCCGACGAUCGUCACCCACGUGGGGCUGCUUGGCUGCUUUGGCCACGGCGUCACCCCUCUCGGAGAAGUACUUGGAGAUCUGCGUGUGGAAGCCUUCCAGCUUGGUGUGAAGGUUGGUCAUCAGCUCAAACAACAGAGGAUUGAGCAUCA
# B17: chr16:16330038:16330039:-_ENSMUSG00000022789_ENSMUST00000023477|mus_mus|FALSE|FALSE (ssRNA)
# RNA: GGGAGUUCUACAGUCCGACGAUCACUUUUAUCAUCCACCGGUUCACCAUAGCUAUUUAGAAGAGACUGAUACUGAGCAGCUAAGACAUUUAUUCUUGUUUUCAGCUCUGGUAAACAAUCUCUGAUAUGAUGCAUAAGUAACCUCAACAGAGGAUUGAGCAUCA
# B18: chr16:23113652:23113653:+_ENSMUSG00000022884_ENSMUST00000115341|mus_mus|motif|central (ssRNA)
# RNA: GGGAGUUCUACAGUCCGACGAUCCCACAAGUAUAUUAUUAAAUGAUAGAGAACAUCUAAUACAACCAUUUCUACAUAACGGGUAAAUGAAUUUCUAAGAAAAAAAGAUUUUACAGACCCCAUCUUUUAUACCCACCCCCAACACAACAGAGGAUUGAGCAUCA
# B19: chr2:64323713:64323714:-_ENSG00000197329_ENST00000358912|hu_hu|motif|central (ssRNA)
# RNA: GGGAGUUCUACAGUCCGACGAUCGCUUUGUACUGACUGUGUAUCAGAAUUACUUUGACUUCCAGGAACCGUGUCAGUUACGGCAAAAUCAAUGGGGCUUUCAGUCGACCGGCCAAUCUGAAACAUAUCGGUGUUGCUGUCAUGCAACAGAGGAUUGAGCAUCA
# B20: chr16:91657502:91657503:+_ENSMUSG00000022961_ENSMUST00000114036|mus_hu|motif|central (ssRNA)
# RNA: GGGAGUUCUACAGUCCGACGAUCUCUAGGUGCUAACCUAUAUGGCCUGGGUGCUAUUCUAUAGGACCUGGGUGCGGUCCUGUAGGGUCUAGGUGACAUCCUAUAGGGAUCAGGAGUUAGUCUGUAGGGAUCAUGGCCUAAUCUCAACAGAGGAUUGAGCAUCA
# B21: chr12:67691335:67691336:+_ENSG00000111530_ENST00000540319|hu_hu|FALSE|FALSE (ssRNA)
# RNA: GGGAGUUCUACAGUCCGACGAUCCAUAGAAUCAUUUUUGGACAACUCUGACAACAGAUGUUCAAUAAGAUCUACAAAAACUAUAUUUCCACAGCUCAUAACCAGAUGGCCAAGAGCGAUAAUGGUUCUUUUCCUCACUGCAAGCAACAGAGGAUUGAGCAUCA
# B22: chr3:52742126:52742127:+_ENSG00000114902_ENST00000602728|hu_hu|motif|central (ssRNA)
# RNA: GGGAGUUCUACAGUCCGACGAUCGAAACAUUAAAAUGGUUAACUCAUAAUGAAUUAUAAAACUUUGAUAGUUACAUUGUACGGUCAUUUAUGAGGCAUUUAUUUUUCAUUAUUUACACCUGAAAGAAACUUCAUACUUGUGUGCAACAGAGGAUUGAGCAUCA
# Target: T1, UNK ZnF1-3
# Test: nsRBNS (natural sequence RNA bind-n-seq); RBNS binding buffer (assumed for nsRBNS): 25 mM Tris pH 7.5, 150 mM KCl, 3 mM MgCl2, 0.01% Triton X-100, 500 ug/ml BSA, 20 U/ml SUPERase-In, 4 C; UNK is unkempt and MSI1 is Musashi-1; names of the RNAs are library labels; protein concentration not given here; high values mean tight binding
row,Binder,binding signal [enrichment R]
1,B1,1.81
2,B2,0.767
3,B3,2.88
4,B4,0.61
5,B5,1.06
6,B6,0.76
7,B7,1.22
8,B8,0.744
9,B9,1.06
10,B10,1.26
11,B11,0.674
12,B12,1.67
13,B13,0.674
14,B14,0.875
15,B15,0.847
16,B16,0.962
17,B17,0.772
18,B18,2.7
19,B19,0.589
20,B20,0.549
21,B21,0.926
22,B22,0.856
